# Several values for one entry are separate records, joined by “and”; a condition that tells them apart may be missing. Equal entries are not always repeated. The shares of active, inactive and inconclusive entries below differ from those in the screen. A potency beside an inconclusive call is a rough fit, not a confirmed value. Activity calls are given as the source filed them. Unless noted, calls follow the shape of the dose curve; as a rule, active = well fitted curve in the direction sought with a large enough effect; inconclusive = small, poorly fitted or top-dose-only effect, or another doubt; inactive = no such curve, though single readings can be large; an effect the other way counts as inactive or inconclusive.
# What was measured:
# [1] = target: Phospholipid hydroperoxide glutathione peroxidase GPX4 (Homo sapiens) (UniProt P36969); experiment: Primary qHTS Assay for Inhibitors of Recombinant Selenoprotein Glutathione Peroxidase 4 (GPX4) (AID 1845192); also: nearly all actives have a fitted effect of over 65% in size
# Chain of UniProt P36969 (P36969 whole entry, looked up): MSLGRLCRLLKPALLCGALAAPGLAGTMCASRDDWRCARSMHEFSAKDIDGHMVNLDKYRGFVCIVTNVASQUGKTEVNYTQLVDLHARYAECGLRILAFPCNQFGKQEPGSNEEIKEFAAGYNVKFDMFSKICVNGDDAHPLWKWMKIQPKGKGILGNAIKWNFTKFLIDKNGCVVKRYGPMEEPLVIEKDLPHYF
# How it was run: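 NADPH consumption, followed by fluorescence at 340/450 nm between 0 and 15 min, reports GPX4 activity via coupled glutathione reductase (100 nM). Enzyme 200 nM was pre-exposed to compound 30 min; 0.5 mM cumene hydroperoxide and 1 mM GSH served as substrates.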
# Tov112D = experiment: Primary qHTS to identify gynecologic anti-cancer compounds using libraries of approved drugs and bioactive compounds (AID 1345084); conditions: Gynecologic cancer cell panel viability, ATPlite luminescence, 48 h; activity change, negative = cytotoxicity: at 57.5 µM (top of the series); also: nearly all actives have a fitted effect of over 55% in size
# How it was run: (§1)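 ATP-based viability (ATPlite), 1,000 cells/well, 16 h pre-incubation, 48 h compound at 37 C, 5% CO2, 15 min RT before read.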
# Es-2 = experiment: as above; conditions: Gynecologic cancer cell panel viability, ATPlite luminescence, 48 h; series mostly up to 57.5 µM
# How it was run: as §1
# HeLa = experiment: as above; conditions: Gynecologic cancer cell panel viability, ATPlite luminescence, 48 h; series mostly up to 57.5 µM
# How it was run: as §1
# [2] = qHTS of pediatric cancer cell lines to identify multiple opportunities for drug repurposing: Primary screen for A673 cells (AID 1347092); conditions: A673 Ewing sarcoma viability, CellTiter-Glo ATP luminescence, 48 h; activity change, negative = cytotoxic: at 46 µM (top of the series); also: nearly all actives have a fitted effect of over 45% in size
# How it was run: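 48 h compound exposure, A673, 500-1,000 cells/well, 37 degrees C/5% CO2. MIPE: 11-point, 0.78 nM-46 µM; NPC: 8-point, 0.59 nM-46 µM (final). Readout CellTiter-Glo luminescence after 15 min RT.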
# [3] = qHTS of pediatric cancer cell lines to identify multiple opportunities for drug repurposing: Primary screen for OHS-50 cells (AID 1347103); also: nearly all actives have a fitted effect of over 40% in size
# How it was run: (§2)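 Cells (500-1,000/well) rested 5 h, then received compounds for 48 h; metabolically active cells were measured by CellTiter-Glo luminescence. Final concentrations spanned up to 46 µM (MIPE, 11-point) or 0.59 nM-46 µM (NPC, 8-point) in primary screens, 11-point in follow-ups.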
# WaGa = experiment: qHTS assay to identify novel small-molecules to repurpose for Merkel cell carcinoma treatment (AID 1296009); conditions: MCC and control cell lines, CellTiter-Glo viability, 72 h; series mostly up to 46 µM; also: nearly all actives have a fitted effect of over 60% in size
# How it was run: (§3)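 After compound transfer in DMSO, plates were kept 72 hr at 37 degree celsius. Luminescent ATP signal from CellTiter-Glo served as viability measure, normalized against DMSO and no-cell controls.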
# [4] = qHTS of pediatric cancer cell lines to identify multiple opportunities for drug repurposing: Primary screen for SK-N-MC cells (AID 1347093); conditions: SK-N-MC viability, CellTiter-Glo luminescence, 48 h; activity change, negative = cytotoxic: at 46 µM (top of the series)
# How it was run: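 Metabolically active cells were quantified by ATP-dependent luminescence (CellTiter-Glo, 15 min at room temperature) following 48 h treatment. Cells had been plated at 500-1,000 per well and settled for 5 h beforehand.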
# [5] = qHTS of pediatric cancer cell lines to identify multiple opportunities for drug repurposing: Primary screen for BT-37 cells (AID 1347094)
# How it was run: (§4)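 Phenotypic viability qHTS, 48 h compound exposure, CellTiter-Glo luminescence read-out; multi-concentration dosing so that potency and efficacy derive directly from the primary screen's curves.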
# CP335 = experiment: qHTS profiling for inhibitors of Plasmodium falciparum proliferation (AID 504749); also: nearly all actives have a fitted effect of over 60% in size; conditions: P. falciparum in erythrocytes, SYBR Green DNA, 72 h; series mostly up to 28.7 µM
# How it was run: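 Three-day growth assay of blood-stage parasites in erythrocytes (0.3% parasitemia, 2.5% hematocrit) at 37 C, 5% CO2, quantified by SYBR Green DNA staining after overnight detergent lysis.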
# MKL-2 = experiment: qHTS assay to identify novel small-molecules to repurpose for Merkel cell carcinoma treatment (AID 1296009); conditions: MCC and control cell lines, CellTiter-Glo viability, 72 h; activity change, negative = cytotoxicity: at 46 µM (top of the series); also: nearly all actives have a fitted effect of over 60% in size
# How it was run: as §3
# [6] = Drug repurposing screens with cells derived from glioblastoma tumor samples (AID 1345199); conditions: GBM patient neurospheres viability, ATP luminescence, 48 h; Potency: tumour line A unless noted; series mostly up to 46 µM; also: nearly all actives have a fitted effect of over 40% in size
# How it was run: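 Four patient lines of CD133+ GBM neurospheres were screened at several concentrations; hits were retested in those lines plus three slower-growing GBM lines, using 48-hour treatment and ATP-based viability.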
# [7] = qHTS of pediatric cancer cell lines to identify multiple opportunities for drug repurposing: Primary screen for SK-N-SH cells (AID 1347098); conditions: SK-N-SH viability, CellTiter-Glo luminescence, 48 h; activity change, negative = cytotoxic: at 57 µM (top of the series); also: nearly all actives have a fitted effect of over 65% in size;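 as to activity change, negative = cytotoxic: DMSO served as neutral control and bortezomib at 2.3 µM as positive control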
# How it was run: as §2
# [8] = qHTS of pediatric cancer cell lines to identify multiple opportunities for drug repurposing: Primary screen for LAN-5 cells (AID 1347100)
# How it was run: as §2
# [9] = qHTS of pediatric cancer cell lines to identify multiple opportunities for drug repurposing: Primary screen for BT-12 cells (AID 1347101); also: nearly all actives have a fitted effect of over 25% in size
# How it was run: as §2
# [10] = Primary qHTS for small molecule stabilizers of the endoplasmic reticulum resident proteome: Secreted ER Calcium Modulated Protein (SERCaMP) assay (AID 1508630); conditions: SH-SY5Y GLuc-SERCaMP (Gaussia luciferase released on ER calcium loss) secretion, thapsigargin, luminescence; series mostly up to 38.4 µM
# How it was run: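 GLuc-SERCaMP-expressing SH-SY5Y cells, pretreated 16 h with compound, are challenged with thapsigargin to empty ER calcium stores; after 4 h, coelenterazine is added directly to the medium and luminescence is imaged.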
# [11] = A High-Content qHTS Against Drug Library for the Identification of Small Molecules that Inhibit DYT1 Early Onset Primary Dystonia-Associated Cell Pathology (AID 1645839; calls by dose curve)
# How it was run: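 In this high-content image screen, delE TorsinA mislocalization in inducible Flp-In 293 cells is scored as %pathology, with cell count serving as the counterscreen. Compound exposure lasts 48 h under tetracycline induction in reduced-serum medium.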
# [12] = target: Cytochrome P450 2C9 (Homo sapiens) (UniProt P11712); experiment: Cytochrome P450 family 2 subfamily C member 9 (CYP2C9) small molecule antagonists: luciferase biochemical (cell-free) qHTS assay (AID 1645842; active = well fitted curve in the direction sought with a large enough effect in the repeat runs; inconclusive = weak or mixed curves; inactive = no such curve, though single readings can be large; an effect the other way counts as inactive or inconclusive; also: nearly all actives have a fitted effect of over 55% in size)
# Chain of UniProt P11712 (P11712 whole entry, looked up): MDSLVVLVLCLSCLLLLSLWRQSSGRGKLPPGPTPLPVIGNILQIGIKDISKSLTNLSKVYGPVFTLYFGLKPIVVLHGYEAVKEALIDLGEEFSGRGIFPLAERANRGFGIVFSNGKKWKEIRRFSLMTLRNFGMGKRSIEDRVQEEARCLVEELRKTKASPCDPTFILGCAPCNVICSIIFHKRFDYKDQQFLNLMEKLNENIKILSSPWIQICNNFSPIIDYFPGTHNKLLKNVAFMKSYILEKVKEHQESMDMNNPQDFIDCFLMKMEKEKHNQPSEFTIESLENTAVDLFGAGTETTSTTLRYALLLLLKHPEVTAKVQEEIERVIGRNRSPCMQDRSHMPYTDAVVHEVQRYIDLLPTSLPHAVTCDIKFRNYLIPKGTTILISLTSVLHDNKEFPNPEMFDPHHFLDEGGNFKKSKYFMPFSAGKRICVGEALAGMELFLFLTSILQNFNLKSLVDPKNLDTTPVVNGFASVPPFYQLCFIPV
# How it was run: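 Luminescence, after 20 min with luciferin detection reagent, reflected CYP2C9 turnover during a 1 h NADPH-driven reaction at 37C. Enzyme-substrate mix contained 0.4% bovine serum albumin and was preincubated with compound 10 min at room temperature.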
# [13] = qHTS of pediatric cancer cell lines to identify multiple opportunities for drug repurposing: Primary screen for Rh41 cells (AID 1347108); also: nearly all actives have a fitted effect of over 70% in size
# How it was run: as §4
# Potency is read from the fitted curve at half-maximal effect; tags tell the direction and shape of the fitted curve.
smiles,measurement,setting,value
Cc1[nH]c2ccccc2c1CCNCc1ccc(/C=C/C(=O)NO)cc1,Potency,[1],"inconclusive: 18 µM [inhibitor, partial curve, poor fit] and inconclusive: 28.2 µM [inhibitor, single point]"
same,Potency,Tov112D,active: 0.316 µM
CNC(=O)c1ccccc1Nc1nc(Nc2ccc(N3CCNCC3)cc2)ncc1Cl,Potency,Es-2,active: 2.24 µM
same,Potency,HeLa,active: 0.0398 µM
same,Potency,Tov112D,"inconclusive: 1.26 µM [cytotoxic, partial curve, poor fit]"
CCC(=O)O[C@]1(C(=O)COC)[C@@H](C)C[C@H]2[C@@H]3CCC4=CC(=O)C=C[C@]4(C)C3(F)[C@@H](O)C[C@@]21C (stereo not given in full),Potency,[2],inactive
same,Potency,[3],inactive
same,Potency,WaGa,inactive
same,Potency,HeLa,inactive
CCN1CC(CCN2CCOCC2)C(c2ccccc2)(c2ccccc2)C1=O (stereo not given),Potency,[2],inactive
same,Potency,[4],"inconclusive: 0.0033 µM [cytotoxic, full curve, poor fit]"
same,Potency,[5],inactive
same,Potency,CP335,"inconclusive: 15.1 µM [inhibitor, single point]"
same,Potency,MKL-2,inactive
same,Potency,[6],"inconclusive: 22.4 µM [inhibitor, partial curve, poor fit]"
Clc1ccc2c(c1)CCc1cccnc1C2=C1CCNCC1,Potency,[4],inactive
same,Potency,[7],"inconclusive: 24.4 µM [cytotoxic, single point]"
same,Potency,[8],"inconclusive: 26.6 µM [cytotoxic, single point]"
same,Potency,[9],"inconclusive: 27.6 µM [cytotoxic, single point]"
same,Potency,[10],"inconclusive: 2.51 µM [inhibitor, full curve, poor fit] and inactive"
same,Potency,[11],"inconclusive: 20 µM [inhibitor, partial curve, poor fit]"
same,Potency,CP335,"inconclusive: 16.9 µM [inhibitor, single point]"
same,Potency,MKL-2,active: 26.6 µM
same,Potency,[6],active: 5.01 µM
CN1CCC(=C2c3ccccc3Sc3ccccc32)CC1,Potency,[2],"inconclusive: 26.6 µM [cytotoxic, partial curve]"
same,Potency,[4],"inconclusive: 23.7 µM [cytotoxic, single point]"
same,Potency,[5],"inconclusive: 38.9 µM [cytotoxic, single point]"
same,Potency,[9],"inconclusive: 19.5 µM [cytotoxic, single point]"
same,Potency,[3],active: 17.4 µM
same,Potency,[10],"inconclusive: 28.2 µM [inhibitor, single point]"
same,Potency,[11],"inconclusive: 22.4 µM [inhibitor, single point]"
same,Potency,[12],inactive
same,Potency,MKL-2,active: 13.3 µM
same,Potency,WaGa,"inconclusive: 29.9 µM [inhibitor, single point]"
CC(C)OC(=O)c1cc2c(OCC(O)CNC(C)(C)C)cccc2[nH]1 (stereo not given),Potency,[2],"inconclusive: 8.41 µM [cytotoxic, partial curve, poor fit]"
same,Potency,[4],inactive
same,Potency,[7],inactive
same,Potency,[3],"inconclusive: 21.9 µM [cytotoxic, single point]"
same,Potency,[13],"inconclusive: 11.9 µM [cytotoxic, partial curve, poor fit]"
same,Potency,[10],"inconclusive: 12.6 µM [inhibitor, partial curve, poor fit] and inconclusive: 28.2 µM [inhibitor, single point]"
same,Potency,Es-2,inactive
same,Potency,HeLa,"inconclusive: 17.8 µM [cytotoxic, partial curve, poor fit]"
same,Potency,[6],active: 11.2 µM
C[C@H]1C[C@H]2[C@@H]3CCC4=CC(=O)C=C[C@]4(C)[C@H]3C(=O)C[C@]2(C)[C@@]1(O)C(=O)CO,Potency,[4],inactive
same,Potency,MKL-2,inactive
Cn1c(SCC(=O)N2CCC[C@H]2C(=O)Nc2ccccc2-c2ccccc2)nc2ccccc21,Potency,[12],"inconclusive: 2.13 µM [inhibitor, partial curve]"
NC(N)=NS(=O)(=O)c1ccc(N)cc1,Potency,[4],inactive
same,Potency,[3],inactive
same,Potency,MKL-2,inactive
same,Potency,HeLa,inactive
COC(=O)[C@H]1[C@H]2C[C@@H]3c4[nH]c5cc(OC)ccc5c4CCN3C[C@H]2C[C@@H](OC(=O)c2cc(OC)c(OC)c(OC)c2)[C@@H]1OC,Potency,[2],"inconclusive: 33.5 µM [cytotoxic, single point]"
same,Potency,[4],"inconclusive: 33.5 µM [cytotoxic, partial curve, poor fit]"
same,Potency,[9],"inconclusive: 27.6 µM [cytotoxic, partial curve, poor fit]"
same,Potency,[3],"inconclusive: 27.6 µM [cytotoxic, single point]"
same,Potency,[13],"inconclusive: 16.8 µM [cytotoxic, partial curve]"
same,Potency,[10],"inconclusive: 14.1 µM [inhibitor, single point] and inconclusive: 10 µM [inhibitor, partial curve, poor fit]"
same,Potency,[11],"inconclusive: 35.5 µM [inhibitor, single point]"
same,Potency,[12],"inconclusive: 24.5 µM [inhibitor, single point]"
same,Potency,MKL-2,"inconclusive: 23.7 µM [inhibitor, partial curve, poor fit]"
same,Potency,Es-2,"inconclusive: 39.8 µM [cytotoxic, single point]"
